# Reference: PubChem BioAssay AID686978 (National Center for Advancing Translational Sciences (NCATS), 2013)
# Where “and” joins values, the source holds several entries; their conditions need not be identical. Equal values may be shown once. About 64,000 (15%) of roughly 420,000 compounds were called active. Inconclusive means that the source gave no clear call. Such entries were picked first, then a sample of the others. The call rests on the fitted dose curve; in most records, active means well fitted inhibition curve with a large enough effect; inconclusive means small, poorly fitted or top-dose-only effect; inactive means flat fitted curve, though single readings scatter. Potencies beside an inconclusive call are fits to weak or partial responses and may not hold up.
# Experiment: qHTS for Inhibitors of human tyrosyl-DNA phosphodiesterase 1 (TDP1): qHTS in cells in absence of CPT; further: nearly all actives have a fitted effect of over 55% in size
# Details: DT40 Tdp1-/- hTDP1 cells, no CPT, ATP luminescence, 48 h; activity change, negative = growth inhibition: at 46.2 µM (top of the series) unless noted
# Summary of the method: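 Seeded 400 DT40-hTDP1 cells/well (vehicle DMSO, no 20 nM CPT); pinned compounds; ≥48 hr at 37 °C; CellTiter-Glo luminescence as viability measure.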
# On the % scale 0 is the no-effect control and ±100 the full control effect; potency means the concentration at half of the fitted maximal effect; tags describe the fitted curve by direction and shape.
Structure (SMILES),Potency,"activity change, negative = growth inhibition"
CCOc1ccc(NC(=O)CN(C)C(=O)c2cn(-c3ccc(F)cc3)nc2-c2cccc(OC)c2)cc1OCC,"inconclusive: 23.1 µM [inhibitor, single point]",
Oc1cc2ccccc2cc1-c1nnc2n1-c1ccccc1SC2,"inconclusive: 18.4 µM [inhibitor, single point]",
COc1ccc(OC)c(NC(=O)c2cc3ccccc3cc2OC)c1,"inconclusive: 16.4 µM [inhibitor, single point]",
Cc1ccc(-n2ccnc(SCC(=O)NCCc3ccccc3)c2=O)cc1F,active: 14.6 µM,
COc1ccc(CCNC(=S)Nc2cc(C)ccc2C)cc1,"inconclusive: 29.1 µM [inhibitor, partial curve, poor fit]",
CCOc1ccc(C(C)=O)cc1Cn1c(=O)oc2ccccc21,"inconclusive: 29.1 µM [inhibitor, single point]",
CC(=O)c1ccn(S(=O)(=O)c2ccccc2)c1,,inactive: -24.5%
CC(C)C[C@H](NC(=O)N1c2ccccc2NC(=O)[C@@H]1C(C)C)C(=O)N[C@@H](Cc1ccccc1)C(=O)O,,inactive: 16.9%
COc1ccccc1NC(=O)CSc1oc(-c2cccs2)nc1S(=O)(=O)c1ccc(C)cc1,"inconclusive: 25.9 µM [inhibitor, single point]",
CCN(CC)c1nc2c(S(=O)(=O)c3ccc(C)cc3)nnn2c2ccsc12,,inactive: -19.1%
CCNC(=S)/C(=C(/[O-])c1ccc([N+](=O)[O-])cc1)[n+]1ccccc1,"inconclusive: 5.8 µM [inhibitor, single point]",
Cc1c(C#N)c2ccccc2n1CC(=O)NCc1ccccc1,"inconclusive: 14.6 µM [inhibitor, single point]",
CNc1snc(C)c1C(=O)OC(C)C(=O)c1ccc(F)cc1 (stereo unspecified),active: 20.6 µM,
CC(=O)NC(c1cccc(F)c1)c1nc(-c2ccc(C)c(C)c2)cs1 (stereo unspecified),"inconclusive: 18.4 µM [inhibitor, single point]",
O=C(CN1C(=O)c2cccc3cccc1c23)NC1CCCC1,"inconclusive: 32.6 µM [inhibitor, partial curve, poor fit]",
O=C(Nc1cccc(Cl)c1)NC1CC2CCC(C1)N2Cc1ccco1 (stereo unspecified),"inconclusive: 20.6 µM [inhibitor, single point]",
CCOc1cc(N2CCOCC2)c(OCC)cc1NC(=O)C1=NN(c2cccc(C)c2)C(=O)CC1,,inconclusive: -33.5% [inhibitor]
O=[N+]([O-])c1ccc(C2CCCC/C2=N/OCc2ccccc2F)c([N+](=O)[O-])c1 (stereo unspecified),"inconclusive: 25.9 µM [inhibitor, single point]",
CCn1cc(Br)c(C(=O)Nc2ccccc2C(=O)OC)n1,"inconclusive: 23.1 µM [inhibitor, single point]",
NC(=S)NN=C1c2cc(Cl)ccc2-c2c1cc(Cl)cc2[N+](=O)[O-],"inconclusive: 20.6 µM [inhibitor, single point]",
COCCn1nnnc1C(c1ccc2ncccc2c1)N1CCN(c2ccccc2F)CC1 (stereo unspecified),,inactive: -11.5%
CCOc1cc(C(=O)OCc2cc(=O)n3c(C)csc3n2)ccc1OC,"inconclusive: 16.4 µM [inhibitor, partial curve]",
CCCSc1nnc2c(n1)OC(CC)N(C(C)=O)c1ccccc1-2 (stereo unspecified),,inactive: -20.8%

Structure (SMILES),Potency,"activity change, negative = growth inhibition"
Cc1ccc(C)c(NC(=O)CCN2CCN(c3ccccc3F)CC2)c1,"inconclusive: 29.1 µM [inhibitor, single point]",
Cc1nc(N2CCN(S(=O)(=O)c3ccc(Br)cc3)CC2)c2c(C)c(C)sc2n1,"inconclusive: 23.1 µM [inhibitor, partial curve, poor fit]",
COc1ccc(OCC(O)CNc2ccc(Br)cc2)cc1 (stereo unspecified),"inconclusive: 29.1 µM [inhibitor, single point]",
O=C(CN1C(=O)COc2ccc(S(=O)(=O)N3CCCCC3)cc21)NCCc1ccc(Cl)cc1,active: 18.4 µM,
O=C(Nc1cccnc1)Nc1cc(Cl)cc(Cl)c1,active: 23.1 µM,
Cc1ccccc1NC(=O)c1ccccc1NC(=O)c1ccccc1F,"inactive and inconclusive: 18.4 µM [inhibitor, single point]",
Cc1cccc(C)c1NC(=O)C1(C)CSCC(=O)N1Cc1ccco1 (stereo unspecified),,inactive: 21.8%
FC(F)(F)c1ccccc1CN1CCC(Cc2ccccc2)CC1,"inconclusive: 20.6 µM [inhibitor, single point]",
CC(C)(C)OC(=O)N/N=C/c1cc(N=Nc2ccccc2)ccc1O,"inconclusive: 18.4 µM [inhibitor, single point]",
O=S(=O)(Cc1ccccc1)N1CCN(Cc2ccccc2)CC1,,inactive: -16.7%
COc1ccccc1-c1cnc(C(O)c2cc(Cl)cc(Cl)c2)[nH]1 (stereo unspecified),"inconclusive: 20.6 µM [inhibitor, single point]",
CCOc1ccc(-c2nnn(CC(=O)c3ccc4c(c3)OCCO4)n2)cc1,active: 16.4 µM,
COc1ccc(CNc2ccnc(-c3ccccc3Cl)n2)c(OC)c1,active: 23.1 µM,
CN(C(=O)COC(=O)Cc1ccccc1[N+](=O)[O-])C1CCS(=O)(=O)C1 (stereo unspecified),,inactive: -9.32%
CC[n+]1c(C)cc2c(sc3ccccc32)c1C,active: 2.91 µM,
COc1cccc(Cn2c(=O)ccc3ccccc32)c1,,inactive: -18.3%
Nc1ncnc2c1ncn2[C@@H]1O[C@H](C(=O)NC2CC2)[C@@H](O)[C@H]1O,,inactive: 3.85%
O=C(c1ccc(F)cc1)C1CCN(Cc2ccc(F)cc2)CC1,,inconclusive: -30.7% [inhibitor]
Cc1ccc2cc3cc(C(=O)NCCN4CCOCC4)oc3nc2c1,"inconclusive: 25.9 µM [inhibitor, single point]",
CCOc1ccccc1CNC(=O)Cn1nc(C)c2nn(-c3ccc(Cl)cc3)c(C)c2c1=O,active: 18.4 µM,
COC(=O)C1=CN(c2c(C)cc(C)cc2C)C(N)=C(C#N)C1c1ccccc1 (stereo unspecified),"inconclusive: 29.1 µM [inhibitor, single point]",
C[C@H](NC(=O)c1ncn2c1C(=O)N[C@@H](C)C2)C(=O)OC(C)(C)C,,inactive: -9.81%
CCN(CC)C(=O)CSc1ncnc2sc(C)c(C)c12,,inactive: -2.38%
